Experimental data as given in the supplement of paper PMC12355420.
Where a name gives a salt, the structure may show the parent alone. The list shows a part of the results. Many values rest on one well or one pass, so single values are uncertain.
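Further: screen of an FDA-approved drug library, NanoLuc luminescence read after lysing the treated cells, taken as a measure of mutant VPS33A protein stability.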

The molecules below were run on HeLa VPS33A KO + NLuc-VPS33A R498W (assay: relative mutant VPS33A R498W amount (NanoLuc luminescence) vs DMSO (fraction of DMSO); HeLa model of a glycosaminoglycan (GAG) storage disease; KI is knock-in and KO knock-out; SDC1 is syndecan 1; higher = higher mutant VPS33A level). Conditions: 50 µM; 24 h.
`C[N+](C)(C)CCOP(=O)(O)OP(=O)([O-])OC[C@H]1O[C@@H](n2ccc(N)nc2=O)[C@H](O)[C@@H]1O` [Citicoline (sodium salt)] was tested, and the “relative mutant VPS33A R498W amount” value was 1.32.
`O=c1ccc2cc(O)c(O)cc2o1` [6,7-Dihydroxycoumarin] was tested, and the “relative mutant VPS33A R498W amount” value was 1.22.
For `COC(=O)C1=C(C)NC(C)=C(C(=O)OC(C)C)C1c1cccc2nonc12` (centres undefined) [Isradipine (Dynacirc)], the “relative mutant VPS33A R498W amount” value was 0.33.
In the case of `COc1cc(N)c(Cl)cc1C(=O)NC1CCN(CCCOc2ccc(F)cc2)CC1OC` (centres undefined) [Cisapride], the “relative mutant VPS33A R498W amount” value is reported as 0.91.
In the case of `COc1ccc(CN(CCN(C)C)c2ccccn2)cc1` [Mepyramine maleate], the “relative mutant VPS33A R498W amount” value is reported as 1.01.
For `C[C@H]1Oc2cc(cnc2N)-c2c(nn(C)c2C#N)CN(C)C(=O)c2ccc(F)cc21`, the “relative mutant VPS33A R498W amount” value was 0.254.
`CC[C@@H]([C@H](C)O)n1ncn(-c2ccc(N3CCN(c4ccc(OC[C@@H]5CO[C@@](Cn6cncn6)(c6ccc(F)cc6F)C5)cc4)CC3)cc2)c1=O` [Posaconazole] was tested, and the “relative mutant VPS33A R498W amount” value was 1.1.
In the case of `COc1cccc(-c2ccc(NC(=O)C3=C(C(=O)O)CCC3)c(F)c2)c1` [Vidofludimus], the “relative mutant VPS33A R498W amount” value is reported as 0.704.
With `CCC(=O)NCC[C@@H]1CCc2ccc3c(c21)CCO3` [Ramelteon] the “relative mutant VPS33A R498W amount” value was 0.921.
In the case of `O=C1OCCN1/N=C/c1ccc([N+](=O)[O-])o1` [Furazolidone], the “relative mutant VPS33A R498W amount” value is reported as 1.2.
`CCC[C@H](N[C@@H](C)C(=O)N1[C@H](C(=O)O)C[C@@H]2CCCC[C@@H]21)C(=O)OCC` [Perindopril Erbumine] was tested, and the “relative mutant VPS33A R498W amount” value was 1.05.
For `Cc1ccc(/C=C2/C(=O)C3(C)CCC2C3(C)C)cc1` (centres undefined) [4-Methylbenzylidene camphor], the “relative mutant VPS33A R498W amount” value was 0.834.
For `CC[C@]1(O)C[C@H]2CN(CCc3c([nH]c4ccccc34)[C@@](C(=O)OC)(c3cc4c(cc3OC)N(C=O)[C@H]3[C@@](O)(C(=O)OC)[C@H](OC(C)=O)[C@]5(CC)C=CCN6CC[C@]43[C@@H]65)C2)C1` [Vincristine], the “relative mutant VPS33A R498W amount” value was 0.437.
With `CNC(=O)[C@H](Cc1ccccc1)NC(=O)[C@H](CC(C)C)[C@H](CSc1cccs1)C(=O)NO` [Batimastat (BB-94)] the “relative mutant VPS33A R498W amount” value was 1.02.
`CC(C)C[C@H](N)C(=O)O` [L-Leucine] was tested, and the “relative mutant VPS33A R498W amount” value was 1.05.
`CCC(=O)OCC(=O)[C@@]1(OC(=O)CC)[C@@H](C)C[C@H]2[C@@H]3CCC4=CC(=O)C=C[C@]4(C)[C@@]3(F)[C@@H](O)C[C@@]21C` [Betamethasone Dipropionate] was tested, and the “relative mutant VPS33A R498W amount” value was 0.425.
In the case of `COc1cc(C(=O)NC2CCCNC2)cc(OC)c1OC` (centres undefined) [Troxipide], the “relative mutant VPS33A R498W amount” value is reported as 1.32.
`Cc1ccsc1C(=CCCN1CCC[C@@H](C(=O)O)C1)c1sccc1C` [Tiagabine] was tested, and the “relative mutant VPS33A R498W amount” value was 0.709.
For `CC(C)[C@H](N)C(=O)OCCOCn1cnc2c(=O)nc(N)[nH]c21` [Valaciclovir HCl], the “relative mutant VPS33A R498W amount” value was 1.35.
For `COc1cc([C@@H]2c3cc4c(cc3[C@@H](O[C@@H]3O[C@@H]5CO[C@@H](c6cccs6)O[C@H]5[C@H](O)[C@H]3O)[C@H]3COC(=O)[C@H]23)OCO4)cc(OC)c1O` [Teniposide], the “relative mutant VPS33A R498W amount” value was 6.6.
`Cc1cc(-n2c(=O)[nH]c(=O)n(C)c2=O)ccc1Oc1ccc(SC(F)(F)F)cc1` [Toltrazuril] was tested, and the “relative mutant VPS33A R498W amount” value was 1.22.
With `Nc1ccc(C(=O)O)cc1` [4-Aminobenzoic acid] the “relative mutant VPS33A R498W amount” value was 1.15.
In the case of `CO[C@H]1C[C@@H]2CC[C@@H](C)[C@@](O)(O2)C(=O)C(=O)N2CCCC[C@H]2C(=O)O[C@H]([C@H](C)C[C@@H]2CC[C@H](n3cnnn3)[C@H](OC)C2)CC(=O)[C@H](C)/C=C(\C)[C@@H](O)[C@@H](OC)C(=O)[C@H](C)C[C@H](C)/C=C/C=C/C=C/1C` [Zotarolimus(ABT-578)], the “relative mutant VPS33A R498W amount” value is reported as 0.464.
With `NC(N)=O` the “relative mutant VPS33A R498W amount” value was 1.27.
With `CCCCOC(=O)c1ccc(O)cc1` [Butylparaben] the “relative mutant VPS33A R498W amount” value was 0.538.
In the case of `Oc1ncnc2[nH]ncc12` [Allopurinol], the “relative mutant VPS33A R498W amount” value is reported as 0.943.
With `Cc1nc2c([nH]1)-c1ccccc1N(C(=O)c1ccc(NC(=O)c3ccccc3-c3ccccc3)cc1)CC2` [Conivaptan HCl] the “relative mutant VPS33A R498W amount” value was 0.631.
With `CC(C)(C)NC(=O)[C@H]1CC[C@H]2[C@@H]3CC[C@H]4NC(=O)C=C[C@]4(C)[C@H]3CC[C@]12C` [Finasteride] the “relative mutant VPS33A R498W amount” value was 0.859.
For `Cc1c(C)c2c(c(C)c1O)CCC(C)(CCCC(C)CCCC(C)CCCC(C)C)O2` (racemic) [DL-α-Tocopherol], the “relative mutant VPS33A R498W amount” value was 1.48.
With `N[C@@H](CC(=O)N1CCn2c(nnc2C(F)(F)F)C1)Cc1cc(F)c(F)cc1F` [Sitagliptin] the “relative mutant VPS33A R498W amount” value was 1.17.
For `CC1Cc2ccccc2N1NC(=O)c1ccc(Cl)c(S(N)(=O)=O)c1` (centres undefined) [Indapamide], the “relative mutant VPS33A R498W amount” value was 0.804.
With `Cc1occc(=O)c1O` [3-Hydroxy-2-methyl-4H-pyran-4-one] the “relative mutant VPS33A R498W amount” value was 1.36.
In the case of `CC(C(O)c1ccc(O)cc1)N1CCC(Cc2ccccc2)CC1` (centres undefined) [Ifenprodil Tartrate], the “relative mutant VPS33A R498W amount” value is reported as 0.796.
For `CCCOc1ccc(C(=O)OCCN(CC)CC)cc1N` [Proparacaine HCl], the “relative mutant VPS33A R498W amount” value was 1.35.
`CN1C(C(=O)Nc2ccccn2)=C(O)c2sc(Cl)cc2S1(=O)=O` [Lornoxicam] was tested, and the “relative mutant VPS33A R498W amount” value was 1.33.
For `CCCCCCCCCCC(=O)O` [Undecanoic Acid], the “relative mutant VPS33A R498W amount” value was 1.5.
For `CC1(C)S[C@@H]2[C@H](NC(=O)[C@H](N)c3ccccc3)C(=O)N2[C@H]1C(=O)O` [Ampicillin Trihydrate], the “relative mutant VPS33A R498W amount” value was 1.3.
In the case of `O=C(O)[C@@H]1C[C@@H](O)CN1` [L-Hydroxyproline], the “relative mutant VPS33A R498W amount” value is reported as 1.02.
In the case of `Cn1cc(C2=C(c3cccc(N)c3)C(=O)NC2=O)c2ccccc21`, the “relative mutant VPS33A R498W amount” value is reported as 1.24.
